# Among all 310,000 compounds or so, about 14,000 (4.5%) showed an effect of 50% or more. Effects have a minus sign here. This is one part of the list.
# Target: human ether-à-go-go-related gene (hERG) potassium channel (human, UniProt Q12809)
# Test: primary screen, population patch clamp on CHO cells stably expressing hERG
# 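Note: peak tail current of the secondary pulse compared with the same well before compound.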
# Sequence of human ether-à-go-go-related gene (hERG) potassium channel (Q12809 whole entry, looked up): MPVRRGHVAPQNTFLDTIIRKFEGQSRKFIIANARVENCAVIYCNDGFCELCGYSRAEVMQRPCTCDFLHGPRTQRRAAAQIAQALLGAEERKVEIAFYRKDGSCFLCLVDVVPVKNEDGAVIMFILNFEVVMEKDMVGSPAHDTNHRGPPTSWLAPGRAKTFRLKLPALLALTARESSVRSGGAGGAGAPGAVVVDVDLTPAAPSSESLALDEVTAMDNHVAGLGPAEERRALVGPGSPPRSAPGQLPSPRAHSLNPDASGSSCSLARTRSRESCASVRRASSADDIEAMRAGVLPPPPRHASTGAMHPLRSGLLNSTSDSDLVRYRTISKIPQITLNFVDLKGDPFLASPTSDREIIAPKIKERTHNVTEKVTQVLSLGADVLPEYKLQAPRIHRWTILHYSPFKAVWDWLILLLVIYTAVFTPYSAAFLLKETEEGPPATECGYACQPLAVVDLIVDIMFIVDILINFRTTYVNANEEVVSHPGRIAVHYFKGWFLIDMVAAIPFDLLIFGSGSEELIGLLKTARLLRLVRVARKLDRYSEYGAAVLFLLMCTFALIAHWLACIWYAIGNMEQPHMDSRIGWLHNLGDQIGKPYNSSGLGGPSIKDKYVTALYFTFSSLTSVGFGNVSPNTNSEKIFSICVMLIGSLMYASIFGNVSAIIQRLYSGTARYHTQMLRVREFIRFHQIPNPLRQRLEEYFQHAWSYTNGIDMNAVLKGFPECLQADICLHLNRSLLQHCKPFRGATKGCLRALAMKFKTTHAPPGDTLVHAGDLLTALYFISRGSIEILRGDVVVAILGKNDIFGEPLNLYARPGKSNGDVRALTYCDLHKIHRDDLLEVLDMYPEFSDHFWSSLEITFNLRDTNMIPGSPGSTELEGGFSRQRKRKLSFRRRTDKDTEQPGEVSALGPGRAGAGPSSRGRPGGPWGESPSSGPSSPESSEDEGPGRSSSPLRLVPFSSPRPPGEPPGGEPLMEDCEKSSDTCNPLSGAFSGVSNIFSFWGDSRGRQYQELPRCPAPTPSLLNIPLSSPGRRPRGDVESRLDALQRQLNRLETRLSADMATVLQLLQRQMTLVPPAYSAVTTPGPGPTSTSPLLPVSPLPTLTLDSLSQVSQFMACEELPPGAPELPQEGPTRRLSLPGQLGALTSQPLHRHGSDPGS
row,SMILES,"hERG current change (%, negative = inhibition) at 10uM [%]"
1,Cc1ccc2nc3c(nc2c1C)C(O)=C3O,6.68
2,COc1ccc(NC(=O)COC(=O)C2CC3C=CC2C3)cc1 (centres unmarked),-0.182
3,COc1ccc(OCc2cc(C(=O)N3C[C@H]4CC[C@H]3C4)no2)c(Cl)c1,-3.96
4,COc1ccc(CC(=O)NNC(=S)NC(=O)c2cccnc2)cc1,7.36
5,c1ccc(C2C/C(=N\N3CCOCC3)c3ccccc3O2)cc1 (centres unmarked),5.14
6,CCOC(=O)Cn1c(=O)oc2cc(S(=O)(=O)N(C)c3ccc(OC)cc3)ccc21,-21.7
7,COc1cc(OC)cc(C(=O)Nc2ccccc2C(=O)NCc2cccnc2)c1,-6.78
8,CCOc1ccc(OCCCCN(C)C)cc1,3.69
9,CCOC(=O)Cn1cnc2c(nnn2-c2ccc(OC)cc2)c1=O,-1.5
10,CC1(C)N=C(c2ccccc2)C(=O)N1,-9.82
11,COc1ccc(OC)c(CN2CCN(c3ccccc3OC)CC2)c1,-32.7
12,c1ccc(-n2cc(CNCCc3cscn3)c(-c3ccc4c(c3)OCO4)n2)cc1,-65.4
13,COc1ccc(OC)c(NC(=S)NCC(c2cccnc2)N2CCOCC2)c1 (centres unmarked),4.6
14,O=C(CNC(=O)c1cccc(F)c1)N/N=C/C=C/c1ccccc1,-4.12
15,CN(C)c1cc(-c2cccc(C(F)(F)F)c2)oc(=O)c1Cl,9.42
16,Cc1cccc2sc(NC(=O)c3cccc(S(=O)(=O)N4CCc5ccccc54)c3)nc12,11.2
17,COc1ccc(NC(=S)NCCN2CCOCC2)c(OC)c1,-1.03
18,CCOC(=O)c1ccccc1NC(=S)N1CCC(C(N)=O)CC1,7.99
19,C/C(=N\NC(=S)NCc1ccccc1)c1ccc(C(C)(C)C)cc1,27.9
20,COc1ccc2c(Cl)c(C(=O)NN)sc2c1,7.88

row,SMILES,"hERG current change (%, negative = inhibition) at 10uM [%]"
1,COc1ccc(NC(=O)c2ccccc2)cc1,13.6
2,CCn1c(SC)nc2cc(S(=O)(=O)N3CCCCC3)ccc21,-21.5
3,COc1ccc(-c2noc(CCCC(=O)NC3CCCC3)n2)cc1OC,-2.97
4,Cc1ccccc1CNC(=O)c1ccccc1,7.43
5,CC(=O)N1CCCN(Cc2cn(-c3ccc(C)cc3)nc2-c2cccc(C)c2)CC1,-43
6,COc1ccc(N2CC(C(=O)Nc3cc(C)ccn3)CC2=O)cc1 (centres unmarked),-9.22
7,CCOC(=O)C1(Cc2cccc(Cl)c2)CCCN(C(=O)CCSC)C1 (centres unmarked),-7.38
8,CC(NC(=O)c1nn(C)c(=O)c2ccccc12)c1ccc(F)cc1 (centres unmarked),-3.84
9,O=C(c1ccccc1)C1CCN(C(=O)C2CCC(=O)N(Cc3ccccc3F)C2)CC1 (centres unmarked),3.08
10,O=C(CSc1ncnc2nc[nH]c12)NCCc1ccccc1,9.1
11,CCOC(=O)N1CCC(NS(=O)(=O)c2cc(Br)cnc2N)CC1,-4.52
12,COc1ccc(CNC(=O)[C@@H](C)NC(=O)[C@@H]2Cc3ccccc3CN2)cc1,-15.7
13,Cc1ccc(CNS(=O)(=O)N(C)C)cc1,21.5
14,CCC(=O)NC(Cc1ccccc1)c1nc2ccccc2[nH]1 (centres unmarked),7.19
15,CCc1ccc(CN2CCN(Cc3cc(Br)ccc3O)CC2)cc1,-1.81
16,Cc1cc(NC(=O)C2C3C(=O)N(CC4CCCO4)C(C(=O)NCc4ccccc4)C34C=CC2(C)O4)no1 (centres unmarked),16.8
17,Oc1cccc(CCC2CCCCN2Cc2cn[nH]c2-c2ccc3c(c2)OCO3)c1 (centres unmarked),-66.2
18,COc1ccc(OC)c(NC(=O)CC2SC(=NCc3ccccc3)NC2=O)c1 (centres unmarked),24.6
19,O=S1(=O)CC(O)C(N(CCO)C(=S)Nc2ccccc2)C1 (centres unmarked),13.5
20,C/C=C(\C)CN1CCN(c2cc(C)ccc2C)CC1,6.08

row,SMILES,"hERG current change (%, negative = inhibition) at 10uM [%]"
1,Cc1cc(C(=O)CN2C(=O)NC(C)(c3ccccc3)C2=O)c(C)n1CC1CCCO1 (centres unmarked),-27.8
2,CC(=O)Nc1ccc(C2NC(=O)CCC2[N+](=O)[O-])cc1 (centres unmarked),6.05
3,COc1ccccc1C(=O)NCCC(=O)Nc1ncccc1O,17
4,O=C(NC(=S)NC1CCS(=O)(=O)C1)c1ccccc1F (centres unmarked),20.8
5,Cc1cc(C)cc(NC(=O)Cc2ccc(-n3cccc3)cc2)c1,25.6
6,Cc1ccc(C(=O)NCCCNC(=O)COc2ccc(Cl)c(C)c2)cn1,-15.8
7,O=C(c1ccc(F)cc1)C1CCN(C(=S)NCC2CCCO2)CC1 (centres unmarked),-26.2
8,COc1ccc(-c2nn3c(-c4ccc(F)cc4)nnc3s2)cc1,6.12
9,COc1ccc(NS(=O)(=O)c2cc3c(cc2C)N(C(C)=O)CCO3)cc1,-4.83
10,CC(=O)OC12CC3CC(C1)C(=NO)C(C3)C2,5.46
11,CC(C)c1ccc(C2/C(=C(\O)c3ccc4c(c3)OCCO4)C(=O)C(=O)N2CCN2CCOCC2)cc1 (centres unmarked),14.9
12,Cc1cc(C)c(C(N)=O)c(NCCc2ccccc2)n1,12.2
13,Cc1ccccc1OCc1nnc(SCCN2CCCC2)n1-c1ccccc1.Cl,-65.3
14,CCC(C)(C)n1nnnc1C(c1ccccc1OC)N1CCN(C(=O)c2ccco2)CC1 (centres unmarked),-32.6
15,CCCc1nnc(NC(=O)c2cn(CC)c3cc(N4CCN(C)CC4)c(F)cc3c2=O)s1,13
16,Cc1cc(=O)oc2cc(OCC(=O)N3CCN(Cc4ccc5c(c4)OCO5)CC3)ccc12,-42.9
17,CCN(CC)S(=O)(=O)c1cc(NC(=O)Cn2cnc3ccccc3c2=O)ccc1C,-54.8
18,CCNc1nc(NCC)nc(N(C)N)n1,2.72
19,COc1ccc(NC(=O)c2ccc3c(SCC(=O)O)c4c(nc3c2)CCCC4)cc1Cl,12

# From article PMC4336329 (PLoS ONE, 2015)
